# Some of the results follow.
# T1: UNK ZnF1-3 (human, UniProt Q9C0B0 31-174)
# T1 sequence: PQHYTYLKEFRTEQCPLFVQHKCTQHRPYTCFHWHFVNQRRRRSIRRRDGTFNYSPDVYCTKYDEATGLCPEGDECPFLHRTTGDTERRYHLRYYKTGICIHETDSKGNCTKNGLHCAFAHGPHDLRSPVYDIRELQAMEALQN
# B1: 2235841_2235961_1716_CDS_ENSG00000157933_ENST00000378536|human|control|control (ssRNA)
# RNA: GGGAGUUCUACAGUCCGACGAUCCUUGACCACCUCAUGCAGGAACUUCUCUUUGGCUUCCUUGGUGUCCAGGCCGCCCUCCAGUGCCUGCCGCAGGUGCUCCAGCUCCGCCUCCAGCCCACUGGGGGCGUCGGCAGGGGCCGCCAACAGAGGAUUGAGCAUCA
# B2: chr12:16947260:16947261:+_ENSMUSG00000020580_ENSMUST00000020904|mus_mus|motif|central (ssRNA)
# RNA: GGGAGUUCUACAGUCCGACGAUCAAUAUCUCUUUCUUCCCAGAAAAAAGCAGAAUCUGAUCUUUUUAUCAUUUCAAAUUUACGGAGAAGCUUCAUUGCAUAAACCUUCUGUGAUGCCUUAUGACGAACCAACUGAACUUCACCCAACAGAGGAUUGAGCAUCA
# B3: chr4:141302222:141302223:+_ENSG00000153130_ENST00000394201|hu_hu|motif|central (ssRNA)
# RNA: GGGAGUUCUACAGUCCGACGAUCUCUUUUGCUUUUUGUGUCAGUUGUUUGAAAAACACUAGAAGCUGACAUGAGAUUUUCGGUAUAUUGUCCAAGAACUUGGUUUUCUGAUUUUAGCUUCAGAUUUUCUUCCUUAACUGCAUCCAACAGAGGAUUGAGCAUCA
# B4: chr1:163112212:163112213:-_ENSG00000143248_ENST00000313961|hu_hu|hu_hu_hu_mus_False|18_58 (ssRNA)
# RNA: GGGAGUUCUACAGUCCGACGAUCUUUUAUUAUCAGUAAGAGUGAGUUACAUACUAGGCAAAGUAUUGGAUACAAUAUUCUAAAGAUAAACACUAUUGGUCCAGAAUUUAAAACUUUUGGGAUAAAUUGCUGGCACAGGACUUACAACAGAGGAUUGAGCAUCA
# B5: chr6:11583160:11583161:+_ENSG00000205269_ENST00000379426|hu_hu|FALSE|FALSE (ssRNA)
# RNA: GGGAGUUCUACAGUCCGACGAUCAAAAUCAAUAAUAUACAAUAUUUACAGCUUGUUAGGUAUUAUAUAUAAACAUAGUUUUUAAAAUAAUCCUUCAAAAUUAAACUGUUUUAUGUAAACAUGCAGUACACAUACUCAUAUAGUCAACAGAGGAUUGAGCAUCA
# B6: 91397733_91399226_862_CDS_ENSMUSG00000040549_ENSMUST00000099716|mouse|control|control (ssRNA)
# RNA: GGGAGUUCUACAGUCCGACGAUCCUCUUGCCAUUUCUUUGCCUCAAUUUUGUCAUAAAAGUCUUUGGGAAGUUUGGAAAGGAUCUCUACCGCAUCCAGAAGCUCAUAAGCAUCUACCUGUGGUACCUCAUCACCAUCAUCACCCAACAGAGGAUUGAGCAUCA
# B7: 42638108_42638228_1226_CDS_ENSMUSG00000025184_ENSMUST00000026188|mouse|control|control (ssRNA)
# RNA: GGGAGUUCUACAGUCCGACGAUCUUCAGUUACAGGGUCACAAGCUGUACCUGCAAUGUCCACCAUACAAGCCUUGCUGGUACUGUCACAUACAUUCCUAAAUCCAUCAUCUGUGUCUAUUUCAUGCACGAGGACCGCUGUAUCCAACAGAGGAUUGAGCAUCA
# B8: chr7:92085846:92085847:+_ENSG00000157259_ENST00000287957|hu_mus|motif|central (ssRNA)
# RNA: GGGAGUUCUACAGUCCGACGAUCGUUAAAACUGAGGCUUUAUACCUGCGAAGUAAGUAUGUCCCAGGUUUGGUUUUGUAACGGCAAGUGGUUGGCAACUGUUUCCUUAAUAGUUAUCGCAGGAGUAGGUCCAACGUGAGUCCACAACAGAGGAUUGAGCAUCA
# B9: 212502490_212502610_829_CDS_ENSG00000066027_ENST00000261461|human|control|control (ssRNA)
# RNA: GGGAGUUCUACAGUCCGACGAUCAACCAGUUCAUUCAGUGUUGCUCUUUUAAUUUCUUUGCUCUUCAAGUCUGAAACAGAGUCCAUGAAAUCAAACAGUAUACAACACUGCUGCAACUUCUGACAGAAAAGCUCUUGUUGUUCCAACAGAGGAUUGAGCAUCA
# B10: chr14:73742652:73742653:-_ENSG00000133961_ENST00000557597|hu_mus|motif|central (ssRNA)
# RNA: GGGAGUUCUACAGUCCGACGAUCCUAACCCGCUCACUUUUGGCAAGAUUACUUACAACUCAUACUUUUUAAUAUUGAGAACGGUUUAAAAUAUUCUAGGUGCAUAAAAAUAAAGAUUUUGGCUUUUUGAUAUAUAUAUAUAUACAACAGAGGAUUGAGCAUCA
# B11: chr2:65473708:65473709:+_ENSG00000138071_ENST00000260641|hu_hu|FALSE|FALSE (ssRNA)
# RNA: GGGAGUUCUACAGUCCGACGAUCUUUCUCUGGUCCAAAUGUGUAGUCCCACAGGUGUUUCAUGUCAUCCCAAUUUCGUACUAUGCCAUUUUCCAUAGGGUAGUUAACUUCUAACAUUGAUCGUAAUUCACUUGCCUCAUCACCCAACAGAGGAUUGAGCAUCA
# B12: 151051166_151052720_551_CDS_ENSG00000113140_ENST00000231061|human|control|control (ssRNA)
# RNA: GGGAGUUCUACAGUCCGACGAUCGGUGGGGUCCUGGCACACGCACAUGGGGGUGUUGUUCUCAUCCAGCUCGCACACCUUGCCGUGUUUGCAGUGGUGGUUCUGGCAGGGAUUUUCCGCCACCACCUCCUCUUCGGUUUCCUCCAACAGAGGAUUGAGCAUCA
# B13: chr11:90138519:90138520:+_ENSMUSG00000003948_ENSMUST00000004050|mus_hu|FALSE|FALSE (ssRNA)
# RNA: GGGAGUUCUACAGUCCGACGAUCAACAAUUUUCUUCUUAAAAAGGAAGGUUUGUUAUUGCACUGACUUUUACAACCUGACAUAGUAAUUUAGAAAAAUCAUGUAGUAAAAUCUGUAAAAUUAAAAUAUAAAAGUCUGGUUUGUCAACAGAGGAUUGAGCAUCA
# B14: chr14:31813938:31813939:-_ENSMUSG00000021917_ENSMUST00000162092|perfect_dup|motif|central (ssRNA)
# RNA: GGGAGUUCUACAGUCCGACGAUCAACUAUAUAGACAGUCCACCCGAACUGUUCAGCCACGUACCCGUAGAUAAAUCCAACGGUUGCAGAAAAAAGAAUAAUUCCCUGAAACAUCUGUUCAGCUAGCUUCUGGCCCUUGUAAUCCAACAGAGGAUUGAGCAUCA
# B15: chr11:90138519:90138520:+_ENSMUSG00000003948_ENSMUST00000004050|mus_mus|motif|central (ssRNA)
# RNA: GGGAGUUCUACAGUCCGACGAUCUUGGGUUUUCUUAAAAAGGAAGUUGUAUUACUAUUGCACUGACUUUGACAACCUGACCGGCUUAAUUUAGAAAAAAAUCAUCGUAGUUAAAAUCUGUAAAAGAAAAAUACAAAAAUUUCUCAACAGAGGAUUGAGCAUCA
# B16: chr4:81936313:81936314:-_ENSMUSG00000008575_ENSMUST00000064770|mus_hu|FALSE|FALSE (ssRNA)
# RNA: GGGAGUUCUACAGUCCGACGAUCCCCACAAAAAGUACCCAAAGAACGUUAUCCUCCAACCGGGCACAAUAAAACCUUCACUAACAUUCUGGCCCAGUCUGGGGUUGAUCCCAGAGGCCUGAACUCUAGAAAUUAAGUAACUGUCAACAGAGGAUUGAGCAUCA
# B17: chr1:229631753:229631754:-_ENSG00000069248_ENST00000261396|hu_hu|FALSE|FALSE (ssRNA)
# RNA: GGGAGUUCUACAGUCCGACGAUCAUGCUUUUCUGAAGAAUCAUCUAAUUCCCAUUUACUGAUGUUUGAACUCGUCAGGCUAUAAAAGCUUGAUCUCUCUCUAUCCCAGAGAACACUUGAAAGUGUGAGAUCACUACUAGGAGACAACAGAGGAUUGAGCAUCA
# B18: chr1:163172661:163172662:-_ENSG00000143248_ENST00000313961|hu_hu|FALSE|FALSE (ssRNA)
# RNA: GGGAGUUCUACAGUCCGACGAUCGCUGCAAGUCCUUUGCACAUUUUGGCAGGUGGCUUAGCUCCUCCGCUUUAAGUACAACUUCUUAACAGCAGAGCCAGUCUUUGAAAACUUCAAAACUGUCUGGGAUGCCUUUCCUCCUGACAACAGAGGAUUGAGCAUCA
# B19: chr4:148551591:148551592:-_ENSMUSG00000063077_ENSMUST00000060537|mus_hu|mus_mus_mus_hu_False|8_48 (ssRNA)
# RNA: GGGAGUUCUACAGUCCGACGAUCACCUGACAAAAUUAAAUAUCCCUGUAAAUUAGACAAUAAGCAGCAGGCAACAAAGUCUUUGCUUUGAAAUAUGUGCCAGGAAAAGUCAUCUUGUUUUUAGAUCACACCUUUCAGUUCACACAACAGAGGAUUGAGCAUCA
# B20: chr5:50689391:50689392:+_ENSG00000016082_ENST00000230658|hu_hu|motif|central (ssRNA)
# RNA: GGGAGUUCUACAGUCCGACGAUCAAUAGGACUGGCUACCAUGCUGUUAGGUGUAUCUGGAAGUUGAGAGGACAUUGAUGCGGCUUCACUGCCAGUGGAAUUAGAGCCCGGUCCUCCUUCUGAAAAAUUGACCAGUUGCUGAAACAACAGAGGAUUGAGCAUCA
# B21: 56417614_56417734_8254_CDS_ENSG00000151914_ENST00000244364|human|control|control (ssRNA)
# RNA: GGGAGUUCUACAGUCCGACGAUCCAAGGCCUGAAGUGAUUUCUGCUGAGUUUGCAACAUGGUCAGGUAUUUGUUACUGUAAGCCUGGGAUCCCAGCGAAUCAUGGAUAUCUAGCUGCUCCUUUGCACACUGAAGCUGCCUUUUCAACAGAGGAUUGAGCAUCA
# B22: chr22:19452774:19452775:-_ENSG00000070010_ENST00000399523|hu_hu|hu_hu_hu_mus_False|1_8 (ssRNA)
# RNA: GGGAGUUCUACAGUCCGACGAUCCUUCUCAUUGUAGUUGAUAGCAAUCACAUCUCCAGUCGUCAGACAGGCGAAGUUUCUCAAUGCAUUUUCUAAUACCGCUUUAGGGUUGGUAAUAUCCAGGAAGUCAGGGCUCUGAGGUUGCAACAGAGGAUUGAGCAUCA
# Target: T1, UNK ZnF1-3
# Assay: nsRBNS (natural sequence RNA bind-n-seq); RBNS binding buffer (assumed for nsRBNS): 25 mM Tris pH 7.5, 150 mM KCl, 3 mM MgCl2, 0.01% Triton X-100, 500 ug/ml BSA, 20 U/ml SUPERase-In, 4 C; UNK is unkempt and MSI1 is Musashi-1; names of the RNAs are library labels; protein concentration not given here; high values mean tight binding
row,Binder,binding signal [enrichment R]
1,B1,0.629
2,B2,1.01
3,B3,0.282
4,B4,1.26
5,B5,0.432
6,B6,1.24
7,B7,0.684
8,B8,1.08
9,B9,0.437
10,B10,3.22
11,B11,0.652
12,B12,0.653
13,B13,2.29
14,B14,1.33
15,B15,2.06
16,B16,1.13
17,B17,0.773
18,B18,0.787
19,B19,1.16
20,B20,1.72
21,B21,0.768
22,B22,0.893
